In all, about 280,000 compounds went through this assay and about 820 (0.29%) were called active. This list was built around the results that the source calls inconclusive (neither active nor inactive); the mix of calls is not that of the screen. Calls follow the shape of the dose curve; as a rule, active = well fitted curve in either direction with a large enough effect; inconclusive = small, poorly fitted or top-dose-only effect; inactive = flat fitted curve, though single readings scatter. No potency is given beside an inconclusive call; the fits are too rough.
Experiment: Total Fluorescence Counterscreen for Inhibitors of the Interaction of Thyroid Hormone Receptor and Steroid Receptor Coregulator 2
Conditions: TRb/SRC2 Texas Red total fluorescence interference; series mostly up to 106 µM
Description: NIH Molecular Libraries Probe Production Network [MLPCN]
NIH Chemical Genomics Center [NCGC]
Assay Provider: R. Kip Guy, St. Jude Children's Research Hospital
Thyroid receptor (TR) regulates many homeostatic processes including basal metabolism, cardiovascular function, body weight, and lipid trafficking. TR modulators are potential therapeutics for obesity and hyperlipidemias but current thyroid analogs have undesirable side effects, particularly cardiac stimulation. To identify inhibitors that specifically prevent the interaction of TR with the steroid receptor […] 2 (SRC2), a fluorescence polarization assay was screened. This assay detects interaction of the ligand-binding domain of human TRb with a Texas Red labeled SRC2 peptide, corresponding to a 20 amino acid region of the nuclear receptor interaction domain (Arnold et al., 2006). Total fluorescence (555 nm excitation and 632 nm emission) was measured to identify potential fluorescent and light absorbing compounds. Such compounds may be artifacts that interfere with the fluorescence polarization assay.
Arnold, L. A.; Estebanez-Perpina, E.; Togashi, M.; Shelat, A.; Ocasio, C. A.; McReynolds, A. C.; Nguyen, P.; Baxter, J. D.; Fletterick, R. J.; Webb, P.; Guy, R. K. A high-throughput screening method to identify small molecule inhibitors of thyroid hormone receptor coactivator binding. Sci STKE 2006, p 13.
NCGC Assay Protocol Summary:
For screening, 5 uL/well 0.6 uM TRb and 20 nM SRC2 Texas Red in protein buffer (20mM Tris hydrochloride, 100mM NaCl, 10% glycerol, 1mM EDTA, 0.01% NP-40, 1mM DTT, 1uM T3 and 5% DMSO) was dispensed into black solid 1536-well plates (Grenier) using a solenoid-based dispenser. Following transfer of 23 nL compound or DMSO vehicle by a pin tool, the plates were centrifuged 15 s at 1000 RPM and incubated 5 hr at ambient temperature. The plates were read by an Envision (Perkin Elmer) to detect fluorescence polarization of SRC2 Texas Red (555 nm excitation and 632 nm emission). Data were normalized to unbound (all components except TRb) and bound SRC2 Texas Red controls. Total fluorescence (TF) was calculated as follows: TF = S + 2P where S and P are fluorescence readings in the parallel and perpendicular channels, respectively.
Keywords: NIH Roadmap, MLPCN, MLI, MLSMR, qHTS, NCGC, qHTS, thyroid hormone receptor, steroid receptor coactivator, fluorescence polarization
Potency is read from the fitted curve at half-maximal effect; tags tell the direction and shape of the fitted curve or compound fluorescence and quenching.

| SMILES | Potency |
| --- | --- |
| CCCCOc1ccc(CNC(=O)c2cnc3sc(N4CCCC4)nn3c2=O)cc1 | inconclusive [falling, full curve, poor fit] |
| Cc1c(Cl)cccc1NC(=O)C(=O)NCCc1csc2nc(-c3ccccc3F)nn12 | inconclusive [falling, partial curve, poor fit] |
| O=C(Cn1c(=O)ccc2cc(S(=O)(=O)N3CCCC3)ccc21)Nc1ccccc1 | inactive |
| NC(=O)OC[C@H](O)COc1ccc(Cl)cc1 | inactive |
| COc1ccc(NC(=O)[C@H](Cc2ccccc2)N2Cc3ccccc3C2=O)cc1OC | inconclusive [falling, full curve, poor fit] |
| O=C(c1ccccc1F)N1c2nc(-c3ccco3)nn2C2(CCCCC2)[C@@H]2CCCC[C@@H]21 | inconclusive [quencher, full curve] |
| N=C1S/C(=C\c2ccccc2)C(=O)N1c1ccc(F)cc1 | inconclusive [falling, partial curve, poor fit] |
| CCOc1ccc(NC(=O)CCn2cccn2)cc1 | inconclusive [falling, full curve, poor fit] |
| c1ccc2c(c1)CC/C2=N/Nc1nc2ccccc2[nH]1 | inactive |
| c1ccc2c(c1)c1c3n2CCNC3CCC1 (centres undefined) | inactive |
| CC(=O)Nc1ccc(NC(=O)C(c2ccccc2)N2Cc3ccccc3C2=O)cc1 (centres undefined) | active: 100 µM [quencher] |
| CCOC(=O)C1=C(CC)Nc2ccccc2N/C1=N\S(=O)(=O)c1cc(Br)ccc1Br | inactive |
| Cc1cc(C)c(-c2cc([C@H](C)O/N=C3/[C@H]4OC4[C@@H](O)[C@H]4[C@H]3CCn3c(=O)n(-c5ccccc5)c(=O)n34)on2)c(C)c1 (some centres undefined) | inconclusive [falling, partial curve, poor fit] |
| CCc1ccc(Nc2nnc(-c3cc4cc(OC)ccc4oc3=O)s2)cc1 | inconclusive [quencher, full curve] |
| O=c1c2ccccc2sn1-c1nccs1 | inactive |
| Cc1ccccc1C(=O)Nc1nnc(S(=O)(=O)N(C)c2ccc(Cl)cc2)s1 | active: 31.6 µM [quencher] |
| COC(=O)c1sccc1S(=O)(=O)N(CC(=O)Nc1ccc(C)c(F)c1)c1ccc(C)c(C)c1 | inconclusive [quencher, full curve] |
| Cc1ccc(NC(=O)c2sc3nc(-c4ccncc4)ccc3c2N)cc1 | inconclusive [falling, full curve, poor fit] |
| CCOc1ccc(S(=O)(=O)c2c(C(=O)c3ccc(C)c(C)c3)cnc3ccccc23)cc1 | inconclusive [quencher, full curve] |
| Cc1ccc(CNC(=O)CCc2nnc3n(C)c(=O)c4sccc4n23)cc1 | inconclusive [falling, full curve, poor fit] |
| C=CCSC1=N/C(=C\C=C\c2ccco2)C(=O)S1 | inconclusive [quencher, partial curve] |
| CCn1nnnc1SCC(=O)NNC(=O)C1CCCCC1 | inactive |
| O=C(CSc1nnc(-c2ccc(O)cc2)n1-c1ccccc1)CC(=O)Nc1ccccc1 | inconclusive [falling, full curve, poor fit] |

| SMILES | Potency |
| --- | --- |
| CCCCN(C)C(=O)c1ccc2c(c1)N(Cc1ccc(F)cc1)C(=O)c1ccccc1S2(=O)=O | active: 0.0011 µM [quencher] |
| COc1ccc2c(c1)O[C@H](c1ccc3c(c1)OCO3)[C@@H](OC(=O)Nc1ccc(OC(F)F)cc1)C2=O | inactive |
| COc1ccccc1CNS(=O)(=O)c1ccc2c(c1)CC(C)N2C(=O)C1CCC1 (centres undefined) | active: 22.4 µM [quencher] |
| O=C(CSc1nc2ccccc2nc1Cc1ccccc1)Nc1ccccc1C(F)(F)F | inactive |
| Cc1ccc(NC(=S)N(Cc2ccco2)C2CCN(C(C)C)CC2)cc1 | inconclusive [falling, partial curve, poor fit] |
| CC1(C(=O)NC2CCCCC2)Cc2ccccc2C(=O)N1Cc1ccc(F)cc1 (centres undefined) | active: 31.6 µM [quencher] |
| Cc1cc2c(n1-c1ccc(C(=O)NCCc3ccccc3)cc1)CCC(C)C2 (centres undefined) | inactive |
| O=c1/c(=C/c2ccccn2)sc2nc3ccccc3n12 | inactive |
| Cc1cc2c(n1-c1ccc(C(=O)NCc3ccc(OC(C)C)cc3)cc1)CCCC2 | inconclusive [quencher, full curve] |
| CCCOc1ccc(C(=O)CCN2CCCCC2)cc1 | inactive |
| Cc1ccc(CNC(=O)c2cc(=O)c3cc(C)cc(C)c3o2)cc1 | active: 3.98 µM [quencher] |
| COCCNC(=O)c1c(NC(=O)c2cc(=O)c3cc(Cl)ccc3o2)sc2c1CCCC2 | inconclusive [falling, full curve, poor fit] |
| CSc1nc(N)c2ncn([C@@H]3O[C@H](COP(=O)(O)OP(=O)(O)OP(=O)(O)O)[C@@H](O)[C@H]3O)c2n1 | inactive |
| CCOc1ccc(CCNC(=O)c2cc3c(s2)-c2ccccc2OC3)cc1OCC | inconclusive [quencher, full curve] |
| Cc1cc(C)c(C(=O)COC(=O)c2cc([N+](=O)[O-])ccc2NCCO)cc1C | inconclusive [falling, partial curve, poor fit] |
| O=C(COC(=O)C1CCCN1C(=O)C12CC3CC(CC(C3)C1)C2)c1ccc(Br)cc1 (centres undefined) | inconclusive [falling, partial curve, poor fit] |
| COc1ccc(CCNC(=O)C(=O)Nc2ccc(C)cc2)cc1OC | inconclusive [falling, partial curve, poor fit] |
| Cc1ccc(CNCc2ccccc2)s1 | active: 17.8 µM [quencher] |
| COc1ccc(N2CCN(C(CNC(=O)C(=O)NCCc3ccccc3)c3cccnc3)CC2)cc1 (centres undefined) | inconclusive [falling, partial curve, poor fit] |
| Cc1ccc(C2CC(=O)Nc3cc4c(cc32)OCCO4)cc1 (centres undefined) | active: 0.0501 µM [quencher] |
| Cc1ccc(N2C(=O)N(CC(=O)C(C)(C)C)c3ccccc3S2(=O)=O)cc1C | inconclusive [falling, full curve, poor fit] |
| CCOC(=O)C(C)(C)N(Cc1ccc(C)cc1)S(=O)(=O)c1ccc(Cl)c([N+](=O)[O-])c1 | inconclusive [falling, partial curve, poor fit] |
| CCCCCSc1nc2sc3c(c2c(=O)n1-c1ccccc1)CCN(C(C)=O)C3 | active: 0.0178 µM [quencher] |

| SMILES | Potency |
| --- | --- |
| CC(C)C[C@H](N)CSSC[C@@H](N)CC(C)C | inactive |
| Cn1nnnc1SCCCNCc1ccccc1OCc1ccccc1Cl | inconclusive [falling, partial curve, poor fit] |
| CNC(=O)CN1C(=O)c2cccnc2Sc2ccccc21 | inconclusive [falling, full curve, poor fit] |
| Cc1ccc(NC2=C/C(=N/S(=O)(=O)c3cccs3)c3ccccc3C2=O)cc1C | inactive |
| O=C(COC(=O)c1ccc([N+](=O)[O-])o1)Nc1cccc(S(=O)(=O)N2CCOCC2)c1 | inconclusive [falling, full curve, poor fit] |
| CN(C)c1ccc(-n2c(CCC(=O)O)ccc2-c2ccccc2)cc1 | inconclusive [falling, full curve, poor fit] |
| CCOc1ccc(-c2nonc2NC(=O)c2oc3ccc(F)cc3c2C)cc1 | active: 0.794 µM [quencher] |
| Cc1cccc(NC(=S)N(Cc2cccs2)Cc2cc3cc(C)cc(C)c3[nH]c2=O)c1 | inconclusive [falling, full curve, poor fit] |
| O=C(CCS(=O)(=O)c1nc(-c2cccs2)cc(C(F)(F)F)n1)Nc1ccc(OC(F)(F)F)cc1 | inactive |
| Cc1ncc([N+](=O)[O-])n1CCO | inconclusive [quencher, full curve] |
| CCOC(=O)c1c(NC(=O)/C=C/c2ccc(C(C)C)cc2)sc2c1CCC2 | inconclusive [falling, full curve, poor fit] |
| Cc1cccc(C(=O)Nc2sc3c(c2C(=O)N2CCCCC2)CCC(C)C3)c1 (centres undefined) | inactive |
| CCOc1ccc(N=C(C)C2=C(O)c3ccccc3C2=O)cc1 | inactive |
| Cc1ccc(CN(Cc2ccco2)C(=O)COc2ccccc2C)cc1 | inconclusive [falling, full curve, poor fit] |
| CCOc1nc(-c2ccccc2)ccc1-c1noc(-c2ccco2)n1 | inactive |
| O=C(COc1ccccc1)NC(=S)Nc1cccc([N+](=O)[O-])c1 | active: 0.891 µM [quencher] |
| Cc1ccc(-c2nc(SCCOc3ccccc3C)n3[nH]c(=O)cc3n2)cc1 | inactive |
| CN(C(=O)c1cc2nc(-c3ccco3)cc(C(F)(F)F)n2n1)c1ccc(OC(F)(F)Cl)cc1 | inconclusive [falling, full curve, poor fit] |
| CC(Sc1nc(=O)cc(N)n1CCc1ccccc1)C(=O)Nc1ccc(Cl)cc1 (centres undefined) | inactive |
| Cc1cccc(N2CCN(C(=O)CCc3nnc4n(CC(C)C)c(=O)c5ccccc5n34)CC2)c1C | inconclusive [quencher, full curve] |
| O=C(/C=C/c1ccc(Cl)cc1)N(Cc1ccccc1)C1CCS(=O)(=O)C1 (centres undefined) | inconclusive [quencher, full curve] |
| Cc1ccc(/C=N/c2sc3c(c2C#N)CCCCC3)o1 | inactive |
| Cn1nc(C(=O)NCc2ccc(Cl)cc2)c2c1-c1ccccc1S(=O)(=O)C2 | inconclusive [quencher, full curve] |

— PubChem BioAssay AID1479 (National Center for Advancing Translational Sciences (NCATS), 2009)
